From PubChem BioAssay AID504339 (National Center for Advancing Translational Sciences (NCATS), 2011)
The whole screen tested about 390,000 compounds, of which about 17,000 (4.4%) were called active. The inconclusive results got no clear call from the source; some entries with a clear call stand among them for comparison. Calls follow the shape of the dose curve; as a rule, active = well fitted inhibition curve with a large enough effect; inconclusive = small, poorly fitted or top-dose-only effect; inactive = no such curve, though single readings can be large or run the other way. Where the call is inconclusive, the potency comes from a doubtful curve fit.
% is scaled to controls: 0 for no effect and ±100 for the full control effect; potency is read from the fitted curve at half-maximal effect; tags tell the direction and shape of the fitted curve.
Also: nearly all actives have a fitted effect of over 50% in size.

What follows are compounds tested against Lysine-specific demethylase 4A (Homo sapiens) (UniProt O75164) (assay: qHTS Assay for Inhibitors of JMJD2A-Tudor Domain). Conditions: AlphaScreen JMJD2A-Tudor / H3K4me3 peptide binding; activity change, negative = inhibition: at 114 µM (top of the series).
UniProt O75164, sequence (O75164 whole entry, looked up, the tested form may be a part): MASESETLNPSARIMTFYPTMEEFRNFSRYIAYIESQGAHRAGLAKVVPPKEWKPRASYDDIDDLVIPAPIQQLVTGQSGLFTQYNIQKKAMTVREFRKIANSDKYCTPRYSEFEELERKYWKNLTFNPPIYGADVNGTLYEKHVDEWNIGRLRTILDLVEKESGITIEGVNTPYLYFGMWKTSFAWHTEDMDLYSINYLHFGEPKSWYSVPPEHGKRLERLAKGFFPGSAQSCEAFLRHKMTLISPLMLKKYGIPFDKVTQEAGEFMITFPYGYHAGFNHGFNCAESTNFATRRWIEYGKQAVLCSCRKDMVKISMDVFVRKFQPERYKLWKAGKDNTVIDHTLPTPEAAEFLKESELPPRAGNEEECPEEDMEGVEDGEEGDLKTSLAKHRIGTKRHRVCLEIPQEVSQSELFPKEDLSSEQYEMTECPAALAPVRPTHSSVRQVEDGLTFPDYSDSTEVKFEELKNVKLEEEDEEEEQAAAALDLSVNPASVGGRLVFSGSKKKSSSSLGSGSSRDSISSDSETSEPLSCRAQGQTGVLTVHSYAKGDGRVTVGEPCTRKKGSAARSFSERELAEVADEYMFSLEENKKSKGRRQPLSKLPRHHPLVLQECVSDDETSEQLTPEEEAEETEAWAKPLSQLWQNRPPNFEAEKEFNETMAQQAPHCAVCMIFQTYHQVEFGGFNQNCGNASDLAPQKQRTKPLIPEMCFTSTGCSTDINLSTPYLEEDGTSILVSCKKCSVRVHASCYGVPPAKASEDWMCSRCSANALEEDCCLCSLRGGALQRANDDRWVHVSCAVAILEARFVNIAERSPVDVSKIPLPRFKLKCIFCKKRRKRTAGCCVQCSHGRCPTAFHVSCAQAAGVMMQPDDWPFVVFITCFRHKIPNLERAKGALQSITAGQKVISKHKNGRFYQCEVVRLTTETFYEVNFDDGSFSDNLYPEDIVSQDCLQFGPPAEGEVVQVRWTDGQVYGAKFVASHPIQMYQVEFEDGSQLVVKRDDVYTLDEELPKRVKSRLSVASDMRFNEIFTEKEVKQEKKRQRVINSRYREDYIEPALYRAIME
`CC(C)c1ccc(N(C(=O)c2snc(C(N)=O)c2N)C(C(=O)NCC2CCCO2)c2ccc(N(C)C)cc2)cc1` (stereo not given) was tested, and the Potency was active: 17.8 µM.
With `CCN(CC)CCN(C(=O)c1ccc2c(c1)OCCO2)c1nc2c(Cl)cccc2s1` the Potency was inconclusive: 44.7 µM [inhibitor, partial curve].
`O=[N+]([O-])c1cc(F)c2cccnc2c1O` was tested, and the Potency was active: 10 µM.
With `CCN(CC)S(=O)(=O)c1ccc(-c2cn3cc(Cl)ccc3n2)cc1` the Potency was inconclusive: 17.8 µM [inhibitor, partial curve].
In the case of `COCC(C)n1c(C)cc(C(=O)CSc2cc(C)c3ccccc3n2)c1C` (stereo not given), the Potency is reported as inconclusive: 39.8 µM [inhibitor, single point].
For `O=C(CN1CCN(c2ccccc2O)CC1)Nc1ccnn1C1CCCC1`, the Potency was inconclusive: 2.51 µM [inhibitor, partial curve, poor fit].
In the case of `COc1ccccc1CNC(=O)C(C)Sc1ccc(C)cc1` (stereo not given), the “activity change, negative = inhibition” value is reported as inactive: -27.1%.
`O=C1CC(c2ccco2)CC2=C1C(c1cccnc1)n1nc(C(F)(F)F)nc1N2` (stereo not given) was tested, and the Potency was inconclusive: 50.1 µM [inhibitor, partial curve].
For `CC(C)(C)NC(=O)C(=O)NNC(=O)c1cccc(F)c1`, the Potency was active: 10 µM.
`c1ccc2cc3c(NCCN4CCOCC4)ccnc3cc2c1` was tested, and the Potency was inconclusive: 12.6 µM [inhibitor, full curve, poor fit].
`Cc1cccc(NC(=O)c2sc3nc4c(c(-c5cccs5)c3c2N)CN(C)CC4)c1` was tested, and the Potency was inconclusive: 44.7 µM [inhibitor, partial curve].
In the case of `COc1ccccc1C(=O)n1nc(-c2ccco2)nc1SC`, the “activity change, negative = inhibition” value is reported as inactive: -11.3%.
`Cc1cc(C)cc(N(CC(=O)N2CCN(Cc3ccccc3)CC2)S(=O)(=O)c2c(C)noc2C)c1` was tested, and the Potency was “inactive”.
In the case of `CCN(CC(=O)NCc1cccs1)C(=O)Cc1ccc(C)c(C)c1`, the “activity change, negative = inhibition” value is reported as inactive: -23.2%.
In the case of `O=C1NC(c2cccs2)Nc2sc3c(c21)CCCC3` (stereo not given), the “activity change, negative = inhibition” value is reported as inactive: -20.4%.
`Cc1ccc(-n2c(C)cc3c2CCCC3=O)cc1` was tested, and the Potency was inconclusive: 50.1 µM [inhibitor, partial curve].
For `CCOCCCNC(=S)NCCNc1nc2c(C)cccc2cc1C#N`, the Potency was inconclusive: 89.1 µM [inhibitor, single point].
With `CSc1ccccc1NC(=O)c1cc2ncc(Br)cn2n1` the Potency was inconclusive: 56.2 µM [inhibitor, partial curve].
With `O=S(=O)(c1ccc(Br)cc1)N1CCN(S(=O)(=O)c2ccc3c(c2)OCCO3)CC1` the “activity change, negative = inhibition” value was inactive: -8.9%.
In the case of `Cc1ccccc1NC(=O)CSc1nnc(-c2ccccn2)o1`, the Potency is reported as inconclusive: 56.2 µM [inhibitor, partial curve].
In the case of `CCC(NC(=O)Nc1cc(OC)ccc1OC)c1c(-n2cccc2)sc2c1CCN(CC)C2` (stereo not given), the Potency is reported as active: 56.2 µM.
With `CCn1ncc(CN2CCC(Oc3ccc(C(=O)N4CCCC4)cc3)CC2)c1C` the “activity change, negative = inhibition” value was inactive: 2.26%.
In the case of `CCCc1nn2c(=O)cc(COc3ccc(NC(=O)c4ccco4)cc3)nc2s1`, the Potency is reported as inconclusive: 15.8 µM [inhibitor, full curve].
For `Nc1nc(SCc2nc3sc4c(c3c(=O)[nH]2)CCCC4)n[nH]1`, the “activity change, negative = inhibition” value was inactive: -21.5%.
With `CCN(CC)CCN(C(=O)c1ccc2c(c1)OCCO2)c1nc2cc3c(cc2s1)OCO3` the Potency was inconclusive: 39.8 µM [inhibitor, partial curve].
`CC(/C=C/c1ccccc1)=N\NC(=O)Cn1nc(C)cc1C` was tested, and the “activity change, negative = inhibition” value was inactive: -18.8%.
In the case of `O=C(c1cc2ccc3cccnc3c2[nH]1)N1CCN(c2ccc(Cl)cc2)CC1`, the Potency is reported as inconclusive: 56.2 µM [inhibitor, partial curve].
With `O=[N+]([O-])c1cc2c(cc1CN1CCN(c3ccccc3)CC1)OCO2` the Potency was inconclusive: 56.2 µM [inhibitor, partial curve].
For `Cc1oc2c(O)c(O)ccc2c(=O)c1-c1cnn(-c2ccccc2)c1`, the Potency was inconclusive: 2.82 µM [inhibitor, full curve, poor fit].
With `Cc1cccc(N=Nc2cnc(N)s2)c1` the Potency was active: 44.7 µM.
For `CN(C)CCCCOc1ccc(Br)cc1Cl`, the Potency was inconclusive: 0.708 µM [inhibitor, full curve, poor fit].
With `Cc1cccc(N=Nc2c(N)n[nH]c2-c2ccc(Cl)cc2)c1` the Potency was inconclusive: 44.7 µM [inhibitor, partial curve].
For `CCOC(=O)c1ccc(N=Nc2c(C)[nH]n(-c3ccccc3)c2=O)cc1`, the Potency was inconclusive: 2.82 µM [inhibitor, full curve].
For `COc1cccc(CNC(=O)CSC2=Nc3ccccc3C3=NC(C(C)C)C(=O)N23)c1` (stereo not given), the “activity change, negative = inhibition” value was inactive: -23.5%.
In the case of `CCCCCc1c2c(cc(O)c1C(=O)O)OC(=O)c1cc(C(=O)CCCC)c(OC)cc1O2`, the Potency is reported as inconclusive: 79.4 µM [inhibitor, partial curve].
For `COc1ccc(C(=O)/C=C2\C(=O)Nc3ccc(Br)cc32)cc1`, the Potency was inconclusive: 3.98 µM [inhibitor, full curve, poor fit].
With `O=S(=O)(Nc1cccc(-c2cn3c(n2)SCC3)c1)c1cccs1` the Potency was inconclusive: 89.1 µM [inhibitor, single point].
With `Cc1ccc(C)c(N2CCN(CCCNC(=O)c3ccc4nc(N5CCCCC5)sc4c3)CC2)c1` the Potency was inconclusive: 50.1 µM [inhibitor, partial curve].
With `O=S(Cc1ccc(Cl)cc1)CC(O)COCc1ccc(Cl)cc1` (stereo not given) the Potency was inconclusive: 89.1 µM [inhibitor, single point].
`Cc1ccc2oc(C(=O)N(Cc3ccc(N(C)C)cc3)C3CCS(=O)(=O)C3)c(C)c2c1` (stereo not given) was tested, and the Potency was active: 20 µM.
In the case of `Cc1ncc(COC(=O)C(C)C)c2cc(C(=O)Nc3ccccc3C(F)(F)F)c(=O)oc12`, the “activity change, negative = inhibition” value is reported as inactive: -4.64%.
With `Cc1c(C#N)c(N)nc2c3c(sc12)NC(=O)CC3c1ccc(Cl)cc1` (stereo not given) the “activity change, negative = inhibition” value was inactive: -26%.
`CCCCc1cc(=O)oc2c(CN(C)C)c(O)c(Cl)cc12` was tested, and the Potency was active: 15.8 µM.
For `Oc1c(Cl)cc(CN2CCOCC2)c2cccnc12`, the Potency was active: 11.2 µM.
In the case of `CC(=O)N1CC[n+]2c(-c3ccc(Cl)cc3)csc21`, the Potency is reported as active: 39.8 µM.
For `Cc1ccccc1Nc1ncnc2c1c(-c1ccccc1)cn2-c1ccc(F)cc1`, the “activity change, negative = inhibition” value was inactive: -9.17%.
With `COc1ccc2[nH]c3c(c2c1)CCN1C(=O)N([C@@H](C)C(=O)NCc2c(F)cccc2Cl)C(=O)[C@]31C` the Potency was inconclusive: 56.2 µM [inhibitor, partial curve].
With `C/C(CC1CC(COCC(C)C)OC1=O)=N\Nc1nc(-c2ccccc2)cs1` (stereo not given) the Potency was inconclusive: 44.7 µM [inhibitor, partial curve].
With `O=C(N/N=C/c1cnc(N2CCCCC2)s1)c1ccc(Cl)cc1` the Potency was inconclusive: 39.8 µM [inhibitor, partial curve].
With `Cn1c(=O)n(Cc2ccco2)c(=N)c2c3c(sc21)CCC3` the Potency was inconclusive: 89.1 µM [inhibitor, partial curve].
With `CCCCCCCCC(=O)N/N=C(\C)c1cccnc1` the Potency was active: 89.1 µM.
With `CN(CCOc1ccccc1)C(=O)c1ccc(N2CCCC2)c([N+](=O)[O-])c1` the Potency was inconclusive: 89.1 µM [inhibitor, partial curve, poor fit].
`Oc1c(Br)cc(Br)cc1CNc1cccc2cccnc12` was tested, and the Potency was inconclusive: 56.2 µM [inhibitor, partial curve].
`Nc1c(NC2CCCCC2)c2ccccc2oc1=O` was tested, and the Potency was inconclusive: 28.2 µM [inhibitor, full curve, poor fit].
With `O=[N+]([O-])c1ccc(C2CCCC/C2=N\OCc2cccc(F)c2)c([N+](=O)[O-])c1` (stereo not given) the Potency was inconclusive: 8.91 µM [inhibitor, partial curve].
With `CCN(CC)C(=O)CSc1nc2sc3c(c2c(=O)n1CCCOC)CCC3` the Potency was inconclusive: 15.8 µM [inhibitor, full curve].
For `O=C(O)c1cc(NC(=O)c2cccc(C(=O)Nc3cc(C(=O)O)cc(C(=O)O)c3)c2)cc(C(=O)O)c1`, the Potency was inconclusive: 56.2 µM [inhibitor, partial curve, poor fit].
With `c1ccc(CSc2nnc([C@@H]3CCCN3)o2)cc1` the Potency was inconclusive: 39.8 µM [inhibitor, single point].
For `CC1Cc2ccccc2N1C(=O)c1ccc(N2CCCCC2)c([N+](=O)[O-])c1` (stereo not given), the Potency was active: 39.8 µM.
For `O=C(Cc1sc(Nc2ccccc2)nc1-c1ccccc1)NCc1ccccn1`, the Potency was inconclusive: 70.8 µM [inhibitor, partial curve].
With `Cc1ccc(CN(C(=O)COc2ccc(C(C)(C)C)cc2)C2CCS(=O)(=O)C2)o1` (stereo not given) the Potency was inconclusive: 56.2 µM [inhibitor, partial curve, poor fit].
With `O=C1C(Cl)=C(N2CCOCC2)C(=O)N1c1cccc(Cl)c1` the Potency was inconclusive: 89.1 µM [inhibitor, single point].
`Cc1ccc(CN2CCN(/N=C/c3cc(Br)ccc3F)CC2)cc1` was tested, and the Potency was inconclusive: 56.2 µM [inhibitor, partial curve, poor fit].
For `CCOc1ccc(-c2csc(N)c2C(=O)OC)cc1`, the Potency was inconclusive: 50.1 µM [inhibitor, partial curve].
For `CC/C=C/C(=O)N1CC2(CC(c3cccc(NC(=O)CC)c3)=NO2)C[C@H]1C(N)=O` (stereo not given in full), the “activity change, negative = inhibition” value was inactive: -15.5%.
For `C=CCn1c(=O)c(CCC(=O)Nc2ccc(N3CCOCC3)cc2)nc2cc(C(F)(F)F)ccc21`, the Potency was active: 35.5 µM.
With `Cc1ccnc(N2CCCC(C(=O)Nc3cccc(C)c3C)C2)n1` (stereo not given) the “activity change, negative = inhibition” value was inactive: 5.82%.
For `O=S(=O)(Nc1cccc(-c2ccc(N3CCCCCC3)nn2)c1)c1ccccc1Cl`, the Potency was inconclusive: 56.2 µM [inhibitor, partial curve].
`CCOC(=O)c1c(CSc2ccccc2)n(C)c2ccc(O)c(CN3CCN(C)CC3)c12` was tested, and the Potency was active: 44.7 µM.
In the case of `O=C1CC(Nc2ccccc2)C(=O)N1c1ccc(N2CCOCC2)cc1` (stereo not given), the “activity change, negative = inhibition” value is reported as inactive: -3.15%.
